Data on 72 molecules can be found in PubChem BioAssay AID488969 (Vanderbilt High Throughput Screening Facility, 2010).

Structures are written as SMILES. In all, about 110,000 compounds were measured (“z-score”: median about -0.1, highest 2% from about 2 on). The list shows a part of the results.

This assay concerns the target Metabotropic glutamate receptor 8 (Rattus norvegicus) (UniProt P70579). As to the kind of experiment: rat mGluR8 modulators via GIRK flux, primary screen, cell-based, thallium flux, HTS (AID 488969). Particulars: HEK293 rat mGluR8, GIRK (G protein-gated inwardly rectifying potassium channel) thallium flux, FluoZin2; at 10 µM; stronger effect = higher value.
UniProt P70579, sequence (P70579 whole entry, looked up): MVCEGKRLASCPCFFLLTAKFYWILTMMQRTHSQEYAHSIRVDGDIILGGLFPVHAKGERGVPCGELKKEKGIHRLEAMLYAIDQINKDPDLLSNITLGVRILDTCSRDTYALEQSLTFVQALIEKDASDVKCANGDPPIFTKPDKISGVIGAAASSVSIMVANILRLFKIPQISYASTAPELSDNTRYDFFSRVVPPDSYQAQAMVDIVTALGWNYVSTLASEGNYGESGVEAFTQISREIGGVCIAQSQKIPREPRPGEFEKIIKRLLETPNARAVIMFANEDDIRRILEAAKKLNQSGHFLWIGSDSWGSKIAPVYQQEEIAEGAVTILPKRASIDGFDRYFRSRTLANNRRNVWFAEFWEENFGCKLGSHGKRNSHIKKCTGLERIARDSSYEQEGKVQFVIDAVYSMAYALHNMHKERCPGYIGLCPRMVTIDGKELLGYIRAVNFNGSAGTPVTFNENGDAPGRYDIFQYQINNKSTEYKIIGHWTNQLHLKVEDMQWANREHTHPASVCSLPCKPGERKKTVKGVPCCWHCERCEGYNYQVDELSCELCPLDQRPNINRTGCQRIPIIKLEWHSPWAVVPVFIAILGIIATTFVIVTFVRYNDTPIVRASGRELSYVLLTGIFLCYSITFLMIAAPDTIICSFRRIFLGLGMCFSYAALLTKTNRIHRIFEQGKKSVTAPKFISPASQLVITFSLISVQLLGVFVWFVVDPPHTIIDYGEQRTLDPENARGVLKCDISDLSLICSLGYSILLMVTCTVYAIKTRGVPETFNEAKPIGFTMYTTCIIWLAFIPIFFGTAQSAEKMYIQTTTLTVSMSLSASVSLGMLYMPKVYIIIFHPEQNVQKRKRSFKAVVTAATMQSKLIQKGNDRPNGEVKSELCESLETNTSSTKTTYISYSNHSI
As for `CN1CCc2nc3sc(C#N)c(N)c3c(-c3cccs3)c2C1`, the z-score was found to be 0.249.

As for `N#Cc1cc(F)c(N2CCNCC2)cc1Cl`, the z-score turned out to be 2.17.

As for `CN1CCN(S(=O)(=O)c2ccc(Cl)nc2)CC1`, the z-score was -0.0958.

Molecule `O=C(c1cnn2c(C(F)(F)F)cc(-c3ccccc3)nc12)N1CCC2(CC1)OCCO2` registered a z-score of 0.124.

The molecule `CCCC[N+]12CCC(CC1)C(C(=O)c1cccs1)C2` (configuration not stated) displayed a z-score of 0.482.

As for `Cc1ccc(C(=O)NC(O)C(Cl)(Cl)Cl)cc1` (configuration not stated), the z-score came to 0.903.

`COc1ccc(NC(c2ccccc2F)P(=O)(Oc2ccccc2)Oc2ccccc2)cc1` (configuration not stated) yielded a z-score of -0.208.

`COCCNP(=O)(c1ccccc1)c1nc2ccccc2s1` (configuration not stated) registered a z-score of 0.656.

For `CCC(=NCC1CCCO1)c1c(O)n(-c2ccccc2)c(=O)[nH]c1=O` (configuration not stated), the z-score is 1.02.

`OC12Oc3ccccc3C=C1N1CCC2CC1` (configuration not stated): the z-score is 2.17.

In turn, `CCN1CCC(O)(c2ccccc2)C(C(=O)c2ccccc2)C1` (configuration not stated) displayed a z-score of -0.0511.

Molecule `O=C(COc1ccc(S(=O)(=O)N2CCOCC2)cc1)N1CCN(Cc2ccc3c(c2)OCO3)CC1` registered a z-score of -1.18.

Molecule `CCCC/C(=N\O)c1c[nH]c2ccccc12` had a z-score of -0.111.

On to `CCCCn1c(O)c(C(C)=NCc2cc(OC)cc(OC)c2)c(=O)[nH]c1=O`, for which the z-score is -2.52.

In turn, `CCCCCCn1c(O)c(C=NCCN2CCCCC2)c(=O)[nH]c1=O` returned a z-score of 0.0424.

With `Cc1nc2cc(C(=O)N3CCC4(CC3)OCCO4)ccc2n1-c1ccc(Br)cc1`, the z-score came out at 0.591.

In turn, `O=C(c1ccco1)c1cn(Cc2ccc(Cl)cc2)c2ccccc12` gave a z-score of -0.345.

`Cn1c(N2CCNCC2)nc2ccccc21` returned a z-score of 0.0642.

`CCCN1C2CCCC1CC(NC(C)=O)C2` (configuration not stated) showed a z-score of -0.0343.

`CCS(=O)(=O)N1CCC(C(=O)N2CCC3(CC2)OCCO3)CC1` registered a z-score of 0.00257.

Molecule `CCN1CCN(C(=O)COc2ccc3c(c2)C(=O)CC2(CCN(C(C)=O)CC2)O3)CC1` gave a z-score of -0.0875.

Consider `CCC1(CCc2ccncc2)C(=O)NC(=O)NC1=O`, for which the z-score was -0.123.

Regarding `CCC(=NCc1ccco1)c1c(O)n(-c2ccc(C)cc2)c(=O)[nH]c1=O`, the z-score is -0.0153.

Take `c1ccc2c(c1)CSc1ccccc1C2C1=NCCN1` (configuration not stated): the z-score is 0.812.

`COC(=O)C1C2c3ccccc3OC1(C)N=c1s/c(=C/c3cnn(C)c3C)c(=O)n12` (configuration not stated) had a z-score of -0.497.

`Cc1ccc(-c2nn(Cc3ccccc3)cc2C=O)cc1C` showed a z-score of -0.254.

Regarding `CC1CCC(C(=O)NC(C(=O)N2CCC3(CC2)OCCO3)C(C)C)CC1` (configuration not stated), the z-score was -0.0686.

`COc1cc2[nH]c(=O)n(-c3ccccc3)c(=O)c2cc1OC` gave a z-score of -0.252.

`CCOP(=O)(OCC)C(NC(C)=O)C(Cl)(Cl)Cl` (configuration not stated) yielded a z-score of -0.0168.

For `Clc1cccc(Cl)c1C1N2CCCN12` (configuration not stated), the z-score was -0.48.

In the case of `CC(O)(CS(=O)(=O)c1ccccc1)C(=O)Nc1cccc(C(F)(F)F)c1` (configuration not stated), the z-score is -0.0169.

With `O=C(COC(=O)c1ccc(O)cc1)Nc1ccc(Cl)cc1C(=O)c1ccccc1`, the z-score is -0.606.

`CC1CCCC(C2(O)C(=O)Nc3ccccc32)C1=O` (configuration not stated) registered a z-score of 0.275.

As to `CC12CN3CC(C)(CN(C1)C3c1ccco1)C2=O` (configuration not stated), the z-score came to 0.289.

Molecule `O=[P+](Cc1ccccc1)Cc1ccccc1` showed a z-score of -0.245.

For `CCCCCSc1cc(OC)c(CCN)cc1OC`, the z-score came to 1.67.

In the case of `COc1ccc(C(O)c2ccccc2OP(=O)(N(C)C)N(C)C)cc1` (configuration not stated), the z-score is 0.00525.

`O=C(NCC(c1cccnc1)N1CCN(c2ccccc2)CC1)Oc1ccccc1` (configuration not stated) registered a z-score of -0.18.

For `CN=C(SCc1cc2c(cc1Cl)OCO2)c1c(O)n(C)c(=O)n(C)c1=O`, the z-score was -0.109.

Molecule `COc1ccc2c(c1)CC1(CN2C)C(=O)NC(=O)N(c2ccc(C)cc2)C1=O` (configuration not stated) gave a z-score of 0.876.

`COc1ccc(OC)c(CN2CCN(C(=O)COc3cccc(C)c3)CC2)c1` displayed a z-score of -0.329.

`CCOC(=O)c1c(C)n(Cc2ccc3c(c2)OCO3)c2ccc(O)cc12` gave a z-score of -0.0535.

With `CC(C)OC(=O)c1c(N)n(CC2CCCO2)c2nc3ccccc3nc12` (configuration not stated), the z-score was -1.51.

With `CCCCn1c(O)c(C(CC)=NCc2ccc(F)cc2)c(=O)[nH]c1=O`, the z-score is -0.493.

Take `Nc1c(C(=O)NCc2ccco2)c2nc3ccccc3nc2n1CCN1CCCCC1`: the z-score was determined as 0.56.

`COc1ccc(NP(=O)(Oc2ccc(Cl)cc2)Oc2ccc(Cl)cc2)cc1OC` displayed a z-score of -0.138.

`Cc1ccc(S(=O)(=O)CC(C)(O)C(=O)Nc2cccc(C(F)(F)F)c2)cc1` (configuration not stated) had a z-score of 0.0261.

As for `Cc1cc(N(CCCl)CCCl)ccc1/C=N/NC(=O)c1ccco1`, the z-score was -2.12.

`Cc1cc(C)cc(-n2c(O)c(C=Nc3ccc(N4CCOCC4)cc3)c(=O)[nH]c2=S)c1` came in with a z-score of -0.109.

With `CCC(=O)CC(c1ccc([N+](=O)[O-])cc1)c1c(O)c2ccccc2oc1=O` (configuration not stated), the z-score is -0.268.

As to `COC1=CCC2([N+](=O)[O-])CN(C)CC1([N+](=O)[O-])C2` (configuration not stated), the z-score is -0.0834.

Consider `O=C(N/N=C/c1c(O)n(Cc2ccccc2)c(=O)[nH]c1=O)c1ccccc1`, for which the z-score is -0.312.

`CN1C(=O)C(=Cc2ccc(N3CCCCC3)o2)C(=O)N(C)C1=S` returned a z-score of -0.179.

On to `Cc1cc(C=O)c(C)n1CC1CCCO1` (configuration not stated), for which the z-score was 0.421.

`O=c1c2ccccc2nc(-c2cccs2)n1-c1ccccc1` came in with a z-score of -0.34.

The molecule `O=C(NC(Cc1ccccc1)C(=O)N1CCC2(CC1)OCCO2)C1CCCCC1` (configuration not stated) showed a z-score of 0.317.

`Cc1ccc(OCC(=O)N2CCN(C)CC2)c(Br)c1` came in with a z-score of -0.043.

Take `COc1ccccc1OP(=O)(Nc1cccnc1)Oc1ccccc1OC`: the z-score turned out to be 0.134.

Molecule `O=C(CCN1CCCCC1)NCC(=O)Nc1ccc(Br)cc1C(=O)c1ccccc1` showed a z-score of -0.353.

Take `COc1ccc(-c2nc3ccccc3n2OC(=O)N(C)C)cc1`: the z-score was -0.277.

The molecule `O=CC(Cl)P(=O)(N1CCCCC1)N1CCCCC1` (configuration not stated) showed a z-score of -0.205.

`CN(C)c1ccc(NC(=O)CN2C(=O)CN=C(c3ccccc3)c3ccccc32)cc1` showed a z-score of -0.402.

Regarding `CCCSc1nc(O)c(CC)c(=O)n1C(C)CC` (configuration not stated), the z-score is -0.288.

`CCC(=NCc1cccnc1)c1c(O)n(Cc2ccccc2)c(=O)[nH]c1=O` gave a z-score of -0.0208.

With `COc1ccc(C2=NCC(=O)N(CC(=O)NCc3ccco3)c3sc4c(c32)CCCC4)cc1OC`, the z-score is -1.

In turn, `Cc1c(NC(=O)C(C)OC(=O)Cc2ccccc2)c(=O)n(-c2ccccc2)n1C` (configuration not stated) registered a z-score of -0.0944.

`CCCCn1c(O)c(C(CC)=NCc2cc(OC)cc(OC)c2)c(=O)[nH]c1=O` had a z-score of -0.703.

`O=C(Nc1ccc(Br)cc1)c1nn(C23CC4CC(CC(C4)C2)C3)cc1Br` returned a z-score of -0.238.

As for `c1ccc(CNC2=NCCS2)cc1`, the z-score was determined as 0.134.

The molecule `CCOc1cc(C2NCc3ccccc3-n3cccc32)ccc1O` (configuration not stated) yielded a z-score of 1.71.

In turn, `CCC(C)(C)n1nnnc1CN1CCC(n2c(C)nc3cc(C(F)(F)F)ccc32)CC1` showed a z-score of -0.21.

Molecule `CCCCn1c(O)c(C(C)=NCC2CCCO2)c(=O)[nH]c1=O` (configuration not stated) returned a z-score of -0.427.
